# This is one part of the list.
# B1: LecRKVI.2 (protein)
# chain: RTTTNFAFRGFNGNQSKIRIEGAAMIKPDGLLRLTDRKSNVTGTAFYHKPVRLLNRNSTNVTIRSFSTSFVFVIIPSSSSNKGFGFTFTLSPTPYRLNAGSAQYLGVFNKENNGDPRNHVFAVEFDTVQGSRDDNTDRIGNDIGLNYNSRTSDLQEPVVYYNNDDHNKKEDFQLESGNPIQALLEYDGATQMLNVTVYPARLGFKPTKPLISQHVPKLLEIVQEEMYVGFTASTGKGQSSAHYVMGWSFSSGGERPIADVLILSELPPPPPNKAKKEGLNS
# Experiments:
# Experiment in all cases: glycan array binding signal (z-score within array); higher = stronger binding
# Details in all cases: glycan notation: IUPAC condensed, linker removed
# [1] = molecular target: Gal(b1-4)GlcNAc(b1-3)Gal(b1-4)GlcNAc(b1-2)[Gal(b1-4)GlcNAc(b1-3)Gal(b1-4)GlcNAc(b1-6)]Man(a1-6)[Gal(b1-4)GlcNAc(b1-3)Gal(b1-4)GlcNAc(b1-2)Man(a1-3)]Man(b1-4)GlcNAc(b1-4)GlcNAc
# Procedure, shortened: (§1)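 Glycan array binding is given as a within-array Z-score, which can be read as non-binding when negative. The arrays, 3228 of them, came from the Consortium for Functional Glycomics database and were retained only where the protein sequence was available. Z-scores were averaged across arrays of the same protein sequence at different concentrations or buffers and across linkers.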
# [2] = molecular target: Gal(b1-4)GlcNAc(b1-3)Gal(b1-4)GlcNAc(b1-2)[Gal(b1-4)GlcNAc(b1-3)Gal(b1-4)GlcNAc(b1-6)]Man(a1-6)[Gal(b1-4)GlcNAc(b1-3)Gal(b1-4)GlcNAc(b1-2)Man(a1-3)]Man(b1-4)GlcNAc(b1-4)[Fuc(a1-6)]GlcNAc
# Procedure, shortened: as §1
# [3] = molecular target: Gal(b1-4)GlcNAc(b1-3)Gal(b1-4)GlcNAc(b1-3)Gal(b1-4)GlcNAc
# Procedure, shortened: as §1
# [4] = molecular target: Gal(b1-4)GlcNAc(b1-3)Gal(b1-4)GlcNAc(b1-3)Gal(b1-4)GlcNAc(b1-2)Man(a1-3)[Gal(b1-4)GlcNAc(b1-3)Gal(b1-4)GlcNAc(b1-3)Gal(b1-4)GlcNAc(b1-2)Man(a1-6)]Man(b1-4)GlcNAc(b1-4)GlcNAc
# Procedure, shortened: as §1
# [5] = molecular target: Gal(b1-4)GlcNAc(b1-3)Gal(b1-4)GlcNAc(b1-3)Gal(b1-4)GlcNAc(b1-2)Man(a1-3)[Gal(b1-4)GlcNAc(b1-3)Gal(b1-4)GlcNAc(b1-3)Gal(b1-4)GlcNAc(b1-2)Man(a1-6)]Man(b1-4)GlcNAc(b1-4)[Fuc(a1-6)]GlcNAc
# Procedure, shortened: as §1
# [6] = molecular target: Gal(b1-4)GlcNAc(b1-3)Gal(b1-4)GlcNAc(b1-3)Gal(b1-4)GlcNAc(b1-2)[Gal(b1-4)GlcNAc(b1-3)Gal(b1-4)GlcNAc(b1-3)Gal(b1-4)GlcNAc(b1-6)]Man(a1-6)[Gal(b1-4)GlcNAc(b1-3)Gal(b1-4)GlcNAc(b1-3)Gal(b1-4)GlcNAc(b1-2)Man(a1-3)]Man(b1-4)GlcNAc(b1-4)[Fuc(a1-6)]GlcNAc
# Procedure, shortened: as §1
# [7] = molecular target: Gal(b1-4)GlcNAc(b1-3)Gal(b1-4)GlcNAc(b1-3)Gal(b1-4)GlcNAc(b1-3)Gal(b1-4)GlcNAc(b1-2)Man(a1-3)[Gal(b1-4)GlcNAc(b1-3)Gal(b1-4)GlcNAc(b1-3)Gal(b1-4)GlcNAc(b1-3)Gal(b1-4)GlcNAc(b1-2)Man(a1-6)]Man(b1-4)GlcNAc(b1-4)GlcNAc
# Procedure, shortened: as §1
# [8] = molecular target: Gal(b1-4)GlcNAc(b1-3)Gal(b1-4)GlcNAc(b1-3)Gal(b1-4)GlcNAc(b1-3)Gal(b1-4)GlcNAc(b1-2)Man(a1-3)[Gal(b1-4)GlcNAc(b1-3)Gal(b1-4)GlcNAc(b1-3)Gal(b1-4)GlcNAc(b1-3)Gal(b1-4)GlcNAc(b1-2)Man(a1-6)]Man(b1-4)GlcNAc(b1-4)[Fuc(a1-6)]GlcNAc
# Procedure, shortened: as §1
# [9] = molecular target: Gal(b1-4)GlcNAc(b1-3)Gal(b1-4)GlcNAc(b1-3)Gal(b1-4)GlcNAc(b1-3)Gal(b1-4)GlcNAc(b1-2)[Gal(b1-4)GlcNAc(b1-3)Gal(b1-4)GlcNAc(b1-3)Gal(b1-4)GlcNAc(b1-3)Gal(b1-4)GlcNAc(b1-6)]Man(a1-6)[Gal(b1-4)GlcNAc(b1-3)Gal(b1-4)GlcNAc(b1-3)Gal(b1-4)GlcNAc(b1-3)Gal(b1-4)GlcNAc(b1-2)Man(a1-3)]Man(b1-4)GlcNAc(b1-4)[Fuc(a1-6)]GlcNAc
# Procedure, shortened: as §1
# [10] = molecular target: Gal(b1-4)GlcNAc(b1-3)Gal(b1-4)GlcNAc(b1-3)Gal(b1-4)GlcNAc(b1-3)Gal(b1-4)GlcNAc(b1-3)Gal(b1-4)GlcNAc(b1-2)Man(a1-3)[Gal(b1-4)GlcNAc(b1-3)Gal(b1-4)GlcNAc(b1-3)Gal(b1-4)GlcNAc(b1-3)Gal(b1-4)GlcNAc(b1-3)Gal(b1-4)GlcNAc(b1-2)Man(a1-6)]Man(b1-4)GlcNAc(b1-4)GlcNAc
# Procedure, shortened: as §1
# [11] = molecular target: Gal(b1-4)GlcNAc(b1-3)Gal(b1-4)GlcNAc(b1-3)Gal(b1-4)GlcNAc(b1-3)Gal(b1-4)GlcNAc(b1-3)Gal(b1-4)GlcNAc(b1-2)Man(a1-3)[Gal(b1-4)GlcNAc(b1-3)Gal(b1-4)GlcNAc(b1-3)Gal(b1-4)GlcNAc(b1-3)Gal(b1-4)GlcNAc(b1-3)Gal(b1-4)GlcNAc(b1-2)Man(a1-6)]Man(b1-4)GlcNAc(b1-4)[Fuc(a1-6)]GlcNAc
# Procedure, shortened: as §1
# [12] = molecular target: Gal(b1-4)GlcNAc(b1-3)Gal(b1-4)GlcNAc(b1-3)Gal(b1-4)GlcNAc(b1-3)Gal(b1-4)GlcNAc(b1-3)Gal(b1-4)GlcNAc(b1-2)[Gal(b1-4)GlcNAc(b1-3)Gal(b1-4)GlcNAc(b1-3)Gal(b1-4)GlcNAc(b1-3)Gal(b1-4)GlcNAc(b1-3)Gal(b1-4)GlcNAc(b1-6)]Man(a1-6)[Gal(b1-4)GlcNAc(b1-3)Gal(b1-4)GlcNAc(b1-3)Gal(b1-4)GlcNAc(b1-3)Gal(b1-4)GlcNAc(b1-3)Gal(b1-4)GlcNAc(b1-2)Man(a1-3)]Man(b1-4)GlcNAc(b1-4)[Fuc(a1-6)]GlcNAc
# Procedure, shortened: as §1
# [13] = molecular target: Gal(b1-4)GlcNAc(b1-3)Gal(b1-4)GlcNAc(b1-3)Gal(b1-4)GlcNAc(b1-3)Gal(b1-4)GlcNAc(b1-3)Gal(b1-4)GlcNAc(b1-3)Gal(b1-4)GlcNAc(b1-2)Man(a1-3)[Gal(b1-4)GlcNAc(b1-3)Gal(b1-4)GlcNAc(b1-3)Gal(b1-4)GlcNAc(b1-3)Gal(b1-4)GlcNAc(b1-3)Gal(b1-4)GlcNAc(b1-3)Gal(b1-4)GlcNAc(b1-2)Man(a1-6)]Man(b1-4)GlcNAc(b1-4)GlcNAc
# Procedure, shortened: as §1
# [14] = molecular target: Gal(b1-4)GlcNAc(b1-3)Gal(b1-4)GlcNAc(b1-3)GalNAc
# Procedure, shortened: as §1
# [15] = molecular target: Gal(b1-4)GlcNAc(b1-3)Gal(b1-4)GlcNAc(b1-3)[Gal(b1-4)GlcNAc(b1-3)Gal(b1-4)GlcNAc(b1-6)]GalNAc
# Procedure, shortened: as §1
# [16] = molecular target: Gal(b1-4)GlcNAc(b1-3)Gal(b1-4)GlcNAc(b1-6)[Gal(b1-3)]GalNAc
# Procedure, shortened: as §1
# [17] = molecular target: Gal(b1-4)GlcNAc(b1-3)Gal(b1-4)[Fuc(a1-3)]GlcNAc(b1-3)Gal(b1-4)[Fuc(a1-3)]GlcNAc
# Procedure, shortened: as §1
# [18] = molecular target: Gal(b1-4)GlcNAc(b1-3)GalNAc
# Procedure, shortened: as §1
# [19] = molecular target: Gal(b1-4)GlcNAc(b1-3)[Fuc(a1-3)GlcNAc(b1-6)]Gal(b1-4)Glc
# Procedure, shortened: as §1
# [20] = molecular target: Gal(b1-4)GlcNAc(b1-3)[Gal(b1-4)GlcNAc(b1-6)]Gal(b1-4)GlcNAc
# Procedure, shortened: as §1
# [21] = molecular target: Gal(b1-4)GlcNAc(b1-3)[GlcNAc(b1-6)]Gal(b1-4)GlcNAc
# Procedure, shortened: as §1
# [22] = molecular target: Gal(b1-4)GlcNAc(b1-6)Gal(b1-4)GlcNAc
# Procedure, shortened: as §1
# [23] = molecular target: Gal(b1-4)GlcNAc(b1-6)GalNAc
# Procedure, shortened: as §1
# [24] = molecular target: Gal(b1-4)GlcNAc(b1-6)[Gal(b1-3)]GalNAc
# Procedure, shortened: as §1
# [25] = molecular target: Gal(b1-4)GlcNAc(b1-6)[Gal(b1-4)GlcNAc(b1-3)]GalNAc
# Procedure, shortened: as §1
# Gal(b1-4)GlcNAc6P = molecular target: Gal(b1-4)GlcNAc6P
# Procedure, shortened: as §1
# Gal(b1-6)Gal = molecular target: Gal(b1-6)Gal
# Procedure, shortened: as §1
# Gal3S(b1-3)GalNAc = molecular target: Gal3S(b1-3)GalNAc
# Procedure, shortened: as §1
# Gal3S(b1-3)GlcNAc = molecular target: Gal3S(b1-3)GlcNAc
# Procedure, shortened: as §1
# [26] = molecular target: Gal3S(b1-3)[Fuc(a1-4)]GlcNAc
# Procedure, shortened: as §1
# Gal3S(b1-4)Glc = molecular target: Gal3S(b1-4)Glc
# Procedure, shortened: as §1
# Gal3S(b1-4)Glc6S = molecular target: Gal3S(b1-4)Glc6S
# Procedure, shortened: as §1
# Gal3S(b1-4)GlcNAc = molecular target: Gal3S(b1-4)GlcNAc
# Procedure, shortened: as §1
# [27] = molecular target: Gal3S(b1-4)[Fuc(a1-3)]Glc6S
# Procedure, shortened: as §1
# [28] = molecular target: Gal3S(b1-4)[Fuc(a1-3)]GlcNAc
# Procedure, shortened: as §1
# [29] = molecular target: Gal3S(b1-4)[Fuc(a1-3)]GlcNAc6S
# Procedure, shortened: as §1
# Gal3S4S(b1-4)GlcNAc = molecular target: Gal3S4S(b1-4)GlcNAc
# Procedure, shortened: as §1
binder,measurement,setting,value
B1,glycan array binding signal (z-score),[1],1.75
same,glycan array binding signal (z-score),[2],1.54
same,glycan array binding signal (z-score),[3],-0.203
same,glycan array binding signal (z-score),[4],6.91
same,glycan array binding signal (z-score),[5],1.62
same,glycan array binding signal (z-score),[6],1.51
same,glycan array binding signal (z-score),[7],0.16
same,glycan array binding signal (z-score),[8],0.041
same,glycan array binding signal (z-score),[9],2.11
same,glycan array binding signal (z-score),[10],-0.228
same,glycan array binding signal (z-score),[11],2.46
same,glycan array binding signal (z-score),[12],0.566
same,glycan array binding signal (z-score),[13],0.722
same,glycan array binding signal (z-score),[14],0.017
same,glycan array binding signal (z-score),[15],0.089
same,glycan array binding signal (z-score),[16],1.65
same,glycan array binding signal (z-score),[17],-0.313
same,glycan array binding signal (z-score),[18],-0.373
same,glycan array binding signal (z-score),[19],-0.377
same,glycan array binding signal (z-score),[20],1.36
same,glycan array binding signal (z-score),[21],-0.347
same,glycan array binding signal (z-score),[22],-0.431
same,glycan array binding signal (z-score),[23],1.62
same,glycan array binding signal (z-score),[24],1.83
same,glycan array binding signal (z-score),[25],-0.085
same,glycan array binding signal (z-score),Gal(b1-4)GlcNAc6P,-0.382
same,glycan array binding signal (z-score),Gal(b1-6)Gal,-0.387
same,glycan array binding signal (z-score),Gal3S(b1-3)GalNAc,-0.198
same,glycan array binding signal (z-score),Gal3S(b1-3)GlcNAc,-0.231
same,glycan array binding signal (z-score),[26],-0.225
same,glycan array binding signal (z-score),Gal3S(b1-4)Glc,-0.237
same,glycan array binding signal (z-score),Gal3S(b1-4)Glc6S,-0.285
same,glycan array binding signal (z-score),Gal3S(b1-4)GlcNAc,-0.354
same,glycan array binding signal (z-score),[27],1.27
same,glycan array binding signal (z-score),[28],-0.386
same,glycan array binding signal (z-score),[29],-0.29
same,glycan array binding signal (z-score),Gal3S4S(b1-4)GlcNAc,-0.399

# Source: the supplement of paper PMC8728848
